Results published in publication PMC9911399, “Two distinct binding modes provide the RNA-binding protein RbFox with extraordinary sequence specificity”.
Substitutions are numbered along the chain they refer to; changes in the protein carry UniProt numbers. The list shows a part of the results.

T1: RBFOX1 RRM (Homo sapiens, UniProt Q9NWB1 109-208)
T1 sequence: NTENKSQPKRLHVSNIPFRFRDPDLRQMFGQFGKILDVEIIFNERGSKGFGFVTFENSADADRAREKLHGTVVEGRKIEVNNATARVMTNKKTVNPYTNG

B1: GGGCCAU (DNA:RNA)
RNA: GGGAGACCGGAAUUCAGAUUGUCCGGGCCAUUUAAAUCCCGUCGUAGCCACCA
DNA 1: CAATCTGAATTCCGGTCTCCC
DNA 2: TGGTGGCTACGACGGGATT
B2: UCGCGCG (DNA:RNA)
RNA: B1 RNA with G25U, G26C, C29G, A30C, U31G
DNA 1: CAATCTGAATTCCGGTCTCCC
DNA 2: TGGTGGCTACGACGGGATT
B3: CAGCUCG (DNA:RNA)
RNA: B1 RNA with G25C, G26A, C29U, A30C, U31G
DNA 1: CAATCTGAATTCCGGTCTCCC
DNA 2: TGGTGGCTACGACGGGATT
B4: GCACUAC (DNA:RNA)
RNA: B1 RNA with G26C, G27A, C29U, U31C
DNA 1: CAATCTGAATTCCGGTCTCCC
DNA 2: TGGTGGCTACGACGGGATT
B5: AUCGCAC (DNA:RNA)
RNA: B1 RNA with G25A, G26U, G27C, C28G, U31C
DNA 1: CAATCTGAATTCCGGTCTCCC
DNA 2: TGGTGGCTACGACGGGATT
B6: UCACGUU (DNA:RNA)
RNA: B1 RNA with G25U, G26C, G27A, C29G, A30U
DNA 1: CAATCTGAATTCCGGTCTCCC
DNA 2: TGGTGGCTACGACGGGATT
B7: GCGUUCC (DNA:RNA)
RNA: B1 RNA with G26C, C28U, C29U, A30C, U31C
DNA 1: CAATCTGAATTCCGGTCTCCC
DNA 2: TGGTGGCTACGACGGGATT
B8: UGAGCGC (DNA:RNA)
RNA: B1 RNA with G25U, G27A, C28G, A30G, U31C
DNA 1: CAATCTGAATTCCGGTCTCCC
DNA 2: TGGTGGCTACGACGGGATT
B9: CGUUGGG (DNA:RNA)
RNA: B1 RNA with G25C, G27U, C28U, C29G, A30G, U31G
DNA 1: CAATCTGAATTCCGGTCTCCC
DNA 2: TGGTGGCTACGACGGGATT
B10: UGCUGGC (DNA:RNA)
RNA: B1 RNA with G25U, G27C, C28U, C29G, A30G, U31C
DNA 1: CAATCTGAATTCCGGTCTCCC
DNA 2: TGGTGGCTACGACGGGATT
B11: AGUAGCA (DNA:RNA)
RNA: B1 RNA with G25A, G27U, C28A, C29G, A30C, U31A
DNA 1: CAATCTGAATTCCGGTCTCCC
DNA 2: TGGTGGCTACGACGGGATT
B12: CGGCAUA (DNA:RNA)
RNA: B1 RNA with G25C, C29A, A30U, U31A
DNA 1: CAATCTGAATTCCGGTCTCCC
DNA 2: TGGTGGCTACGACGGGATT
B13: CCAACCU (DNA:RNA)
RNA: B1 RNA with G25C, G26C, G27A, C28A, A30C
DNA 1: CAATCTGAATTCCGGTCTCCC
DNA 2: TGGTGGCTACGACGGGATT
B14: GUAUAGC (DNA:RNA)
RNA: B1 RNA with G26U, G27A, C28U, C29A, A30G, U31C
DNA 1: CAATCTGAATTCCGGTCTCCC
DNA 2: TGGTGGCTACGACGGGATT
B15: CCAGGUA (DNA:RNA)
RNA: GGGAGACCGGAAUUCAGAUUGUCCCCAGGUAUUAAAUCCCGUCGUAGCCACCA
DNA 1: CAATCTGAATTCCGGTCTCCC
DNA 2: TGGTGGCTACGACGGGATT
B16: GAUAGUA (DNA:RNA)
RNA: B15 RNA with C25G, C26A, A27U, G28A
DNA 1: CAATCTGAATTCCGGTCTCCC
DNA 2: TGGTGGCTACGACGGGATT
B17: UCUGCAC (DNA:RNA)
RNA: B15 RNA with C25U, A27U, G29C, U30A, A31C
DNA 1: CAATCTGAATTCCGGTCTCCC
DNA 2: TGGTGGCTACGACGGGATT
B18: CACUUCG (DNA:RNA)
RNA: B15 RNA with C26A, A27C, G28U, G29U, U30C, A31G
DNA 1: CAATCTGAATTCCGGTCTCCC
DNA 2: TGGTGGCTACGACGGGATT
B19: CUUACGC (DNA:RNA)
RNA: B15 RNA with C26U, A27U, G28A, G29C, U30G, A31C
DNA 1: CAATCTGAATTCCGGTCTCCC
DNA 2: TGGTGGCTACGACGGGATT
B20: GUGUGAG (DNA:RNA)
RNA: B1 RNA with G26U, C28U, C29G, U31G
DNA 1: CAATCTGAATTCCGGTCTCCC
DNA 2: TGGTGGCTACGACGGGATT

target: T1, RBFOX1 RRM; assay: EMSA; HiTS-Eq, 1 nM pool, 10 min; buffer printed only for the single-RNA assays: 10 mM Tris pH 7.5, 150 mM NaCl, 3.4 mM EDTA, 0.001% NP-40, 30 C; conditions: tags: His6 N-terminal (pET28a); label: 5' 32P
In short: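 A pool of RNA with 7 randomized nucleotides, 5′-radiolabelled and with DNA-annealed flanks, was equilibrated at 1 nM for 10 min in 50 µL with purified RbFox RRM, wild type or mutant, across increasing protein concentrations. Free RNA was separated by 8% native PAGE, excised, reverse-transcribed, barcoded by PCR and sequenced. Relative association constants were obtained from read-count changes of each RNA species versus the control reaction and normalised to the cognate motif.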

Binder | binding signal
B1 | 0.0103 KA relative to UGCAUGU
B2 | 0.0239 KA relative to UGCAUGU
B3 | 0.0193 KA relative to UGCAUGU
B4 | 0.0024 KA relative to UGCAUGU
B5 | 0.00838 KA relative to UGCAUGU
B6 | 0.00799 KA relative to UGCAUGU
B7 | 0.0126 KA relative to UGCAUGU
B8 | 0.0179 KA relative to UGCAUGU
B9 | 0.00404 KA relative to UGCAUGU
B10 | 0.0238 KA relative to UGCAUGU
B11 | 0.0142 KA relative to UGCAUGU
B12 | 0.00583 KA relative to UGCAUGU
B13 | 0.00376 KA relative to UGCAUGU
B14 | 0.00925 KA relative to UGCAUGU
B15 | 0.00832 KA relative to UGCAUGU
B16 | 0.0146 KA relative to UGCAUGU
B17 | 0.0198 KA relative to UGCAUGU
B18 | 0.0103 KA relative to UGCAUGU
B19 | 0.00651 KA relative to UGCAUGU
B20 | 0.00938 KA relative to UGCAUGU
